PMC8441365
Results are given in words; binding and its absence hold for the method and conditions named. For part of these data: In cells and extracts the contact can be indirect. Some entries that bind do so weakly or less than the wild type.

Amino acid sequences for entries named in this document (tags omitted). A change or cut given only in a name is not applied to a line headed by its entry. Chains listed by the source or under a name are the forms on record and can include a tag or linker. Residues count along the entry.
UniProt Q969U6: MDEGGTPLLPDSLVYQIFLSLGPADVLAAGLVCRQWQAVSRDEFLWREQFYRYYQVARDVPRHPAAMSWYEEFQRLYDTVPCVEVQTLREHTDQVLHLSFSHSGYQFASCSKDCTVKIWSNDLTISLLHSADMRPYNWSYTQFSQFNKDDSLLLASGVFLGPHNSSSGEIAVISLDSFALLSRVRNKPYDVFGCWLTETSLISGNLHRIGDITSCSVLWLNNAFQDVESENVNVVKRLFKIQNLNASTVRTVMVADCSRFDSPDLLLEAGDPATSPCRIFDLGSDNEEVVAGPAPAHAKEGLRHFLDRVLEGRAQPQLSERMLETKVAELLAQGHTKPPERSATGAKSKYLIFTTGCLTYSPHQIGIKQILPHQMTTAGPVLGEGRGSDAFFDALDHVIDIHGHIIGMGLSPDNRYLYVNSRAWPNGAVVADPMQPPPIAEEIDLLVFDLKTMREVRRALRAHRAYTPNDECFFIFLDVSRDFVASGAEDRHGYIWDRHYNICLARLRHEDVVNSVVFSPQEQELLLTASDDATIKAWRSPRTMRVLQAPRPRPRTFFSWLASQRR
UniProt O14964: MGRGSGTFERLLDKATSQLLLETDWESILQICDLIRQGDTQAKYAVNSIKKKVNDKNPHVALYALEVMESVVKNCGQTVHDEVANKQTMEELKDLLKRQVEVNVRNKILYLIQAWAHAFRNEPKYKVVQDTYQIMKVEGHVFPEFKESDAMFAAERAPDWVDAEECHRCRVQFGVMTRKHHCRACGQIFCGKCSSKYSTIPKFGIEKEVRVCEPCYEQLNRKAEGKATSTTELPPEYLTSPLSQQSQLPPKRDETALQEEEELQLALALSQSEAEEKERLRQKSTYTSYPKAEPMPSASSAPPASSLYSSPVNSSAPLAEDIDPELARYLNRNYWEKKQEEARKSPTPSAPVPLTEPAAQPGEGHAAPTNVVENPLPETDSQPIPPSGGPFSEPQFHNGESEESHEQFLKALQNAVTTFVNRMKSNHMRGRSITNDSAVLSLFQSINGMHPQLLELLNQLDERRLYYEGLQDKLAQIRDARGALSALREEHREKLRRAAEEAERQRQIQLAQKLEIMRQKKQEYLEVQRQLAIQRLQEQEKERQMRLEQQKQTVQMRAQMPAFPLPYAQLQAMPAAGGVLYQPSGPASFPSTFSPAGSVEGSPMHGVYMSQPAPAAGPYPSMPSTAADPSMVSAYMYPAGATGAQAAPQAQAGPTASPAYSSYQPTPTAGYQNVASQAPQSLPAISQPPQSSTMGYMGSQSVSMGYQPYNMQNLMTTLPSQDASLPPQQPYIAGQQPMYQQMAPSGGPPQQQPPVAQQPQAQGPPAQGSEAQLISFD
UniProt O00139, residues 28-706: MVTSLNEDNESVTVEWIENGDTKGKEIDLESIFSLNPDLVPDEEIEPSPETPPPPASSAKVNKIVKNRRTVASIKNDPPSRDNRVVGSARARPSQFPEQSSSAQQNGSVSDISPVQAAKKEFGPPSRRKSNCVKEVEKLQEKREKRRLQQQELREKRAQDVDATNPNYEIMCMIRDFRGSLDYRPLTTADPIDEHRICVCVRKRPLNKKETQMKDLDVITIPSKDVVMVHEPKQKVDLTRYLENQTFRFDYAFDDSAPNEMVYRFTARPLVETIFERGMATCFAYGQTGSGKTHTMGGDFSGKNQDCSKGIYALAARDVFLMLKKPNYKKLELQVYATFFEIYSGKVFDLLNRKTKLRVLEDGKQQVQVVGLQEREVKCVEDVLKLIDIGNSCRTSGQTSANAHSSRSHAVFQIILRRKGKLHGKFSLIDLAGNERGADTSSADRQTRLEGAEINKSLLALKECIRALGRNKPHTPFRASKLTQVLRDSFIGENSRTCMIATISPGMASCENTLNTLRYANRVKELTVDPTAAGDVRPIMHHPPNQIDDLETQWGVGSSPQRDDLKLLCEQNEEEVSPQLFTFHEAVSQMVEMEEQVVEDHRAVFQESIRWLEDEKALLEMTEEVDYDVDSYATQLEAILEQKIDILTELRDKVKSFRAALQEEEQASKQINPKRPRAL
UniProt P09211: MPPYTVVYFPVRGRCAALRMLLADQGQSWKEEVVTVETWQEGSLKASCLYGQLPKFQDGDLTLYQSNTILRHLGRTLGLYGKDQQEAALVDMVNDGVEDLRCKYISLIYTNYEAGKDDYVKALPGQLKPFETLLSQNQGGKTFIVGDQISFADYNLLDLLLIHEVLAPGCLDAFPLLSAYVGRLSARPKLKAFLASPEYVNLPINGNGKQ
UniProt Q8N4N8: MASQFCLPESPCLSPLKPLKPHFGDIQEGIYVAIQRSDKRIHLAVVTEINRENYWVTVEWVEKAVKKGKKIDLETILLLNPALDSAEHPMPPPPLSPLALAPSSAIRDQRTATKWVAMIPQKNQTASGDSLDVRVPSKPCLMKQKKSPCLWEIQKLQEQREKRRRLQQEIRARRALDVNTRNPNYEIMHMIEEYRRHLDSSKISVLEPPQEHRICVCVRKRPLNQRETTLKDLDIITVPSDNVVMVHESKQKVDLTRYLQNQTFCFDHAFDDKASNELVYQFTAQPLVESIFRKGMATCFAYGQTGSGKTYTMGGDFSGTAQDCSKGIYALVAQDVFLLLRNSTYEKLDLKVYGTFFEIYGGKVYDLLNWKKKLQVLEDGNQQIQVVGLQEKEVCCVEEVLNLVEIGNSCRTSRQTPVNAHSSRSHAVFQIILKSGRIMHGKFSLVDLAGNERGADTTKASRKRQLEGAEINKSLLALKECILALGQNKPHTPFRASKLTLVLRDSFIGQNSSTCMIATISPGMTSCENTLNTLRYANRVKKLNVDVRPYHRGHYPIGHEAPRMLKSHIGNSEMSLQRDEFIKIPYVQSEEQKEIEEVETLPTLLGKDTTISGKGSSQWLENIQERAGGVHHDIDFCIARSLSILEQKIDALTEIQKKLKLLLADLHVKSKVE
Skp1ΔΔ (P63208, form named): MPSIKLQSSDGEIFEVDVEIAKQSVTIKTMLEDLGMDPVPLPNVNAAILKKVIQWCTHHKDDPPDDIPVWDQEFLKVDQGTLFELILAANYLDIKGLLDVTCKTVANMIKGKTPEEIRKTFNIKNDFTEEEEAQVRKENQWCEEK

Experiments:
[1] = target: endogenous Fbxw5 (human (endogenous in RPE-1)) (UniProt Q969U6); experiment: co-IP; endogenous proteins; anti-Fbxw5 IgG or unspecific rabbit IgG with Protein A agarose, lysis buffer with 0.4% NP-40; Fig 2D: RPE-1 cells asynchronous or arrested 24 h with 2 mM HU, 10 µM RO-3306 or 75 ng/ml nocodazole; Fig EV1D: cell line not stated
Flag-Fbxw5 (human) [2] = target: Flag-Fbxw5 (human) (UniProt Q969U6); experiment: co-IP; exogenously expressed Flag-Fbxw5 precipitated with anti-Flag antibodies, eluted with FLAG-peptide, TCA precipitated; endogenous partners detected by Western blot (Fig EV1C)
Flag-Fbxw5 (human) [3] = target: Flag-Fbxw5 (human) (UniProt Q969U6); experiment: co-IP; tagged proteins expressed in Hek293T cells, extracts subjected to anti-Flag IP (FLAG-agarose, 3 h; lysis buffer 20 mM HEPES pH 7.3, 110 mM K-acetate, 0.2% NP-40), Western blot
[4] = target: Fbxw5 (Sf21, co-expressed with Skp1) (human) (UniProt Q969U6); experiment: co-purification; F-box protein and Skp1 co-expressed in Sf21 cells by co-infection, purified together via Ni-NTA and Superdex 200

## endogenous HGS (from UniProt O14964 1-777)
[1]
  binding: binds
Flag-Fbxw5 (human) [2]
  binding: binds

## HA-Kif2a (from UniProt O00139-1 1-679)
Flag-Fbxw5 (human) [3]
  binding: binds weakly

## endogenous GSTP1 (from UniProt P09211 1-210)
Flag-Fbxw5 (human) [2]
  binding: binds

## HA-Kif2b (from UniProt Q8N4N8 1-673)
Flag-Fbxw5 (human) [3]
  binding: binds

## Skp1ΔΔ (from UniProt P63208 1-163)
[4]
  binding: binds
